Where “and” joins values, the source holds several entries; their conditions need not be identical. Equal entries are not always repeated. About 1,200 (2.5%) of roughly 48,000 compounds were called active. Another 2% or so got no clear call; they are omitted.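 How the source made its calls: active means activation of at least 60% and not above a set upper limit (about 1 call in 100 departs from these limits); inconclusive means activation of 40% to 60%, or above that upper limit; inactive means activation under 40%.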 The list shows a part of the results.
molecular target: Probable G-protein coupled receptor 32 (Homo sapiens) (UniProt O75388); assay: qHTS for Agonists of Human Resolvin D1 Receptor DRV1; settings: CHO-K1 GPR32 beta-arrestin PathHunter luminescence, 90 min; at 76.9 µM; stronger effect = higher value; zero percent set by DMSO-only wells
Chain of UniProt O75388 (O75388 whole entry, looked up, the tested form may be a part): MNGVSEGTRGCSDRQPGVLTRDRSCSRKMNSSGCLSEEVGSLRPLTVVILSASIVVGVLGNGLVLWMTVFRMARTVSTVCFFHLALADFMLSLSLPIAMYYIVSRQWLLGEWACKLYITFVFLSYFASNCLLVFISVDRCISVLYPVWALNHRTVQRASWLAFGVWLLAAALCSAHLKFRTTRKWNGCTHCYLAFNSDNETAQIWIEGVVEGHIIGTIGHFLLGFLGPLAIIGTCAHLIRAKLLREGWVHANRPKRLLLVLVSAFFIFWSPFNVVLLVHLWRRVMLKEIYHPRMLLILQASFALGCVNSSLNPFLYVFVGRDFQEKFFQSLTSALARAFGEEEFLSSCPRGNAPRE
In short: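 PathHunter enzyme-fragment complementation, CHO-K1 GPR32 stable line; 2,500 cells/well, overnight attach; cpd 90 min 37 °C 5% CO2; detection reagent 1 h RT; chemiluminescence. DMSO = EC0.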

activation, inactive:
COc1ccc(NC(=O)CN2CCN(c3ccccc3F)CC2)c(OC)c1 -7.36%
CCCOc1ccc(-c2cccc(NS(=O)(=O)c3ccc(CC)cc3)c2)nn1 -8.05%
CCC(C)NC(=O)CCC(=O)NNc1nc2ccccc2c2nc(C)nn12 (stereo not drawn) -4.31%
CCCSCCCNC(=O)CN1C(=O)CCn2nc(-c3cn(C)c4ccccc34)cc21 -1.43%
Cc1cc(C)c(NC(=O)CN(C)S(=O)(=O)c2ccc3c(c2)c(=O)n(C)c(=O)n3C)c(C)c1 -12.1%
CCC1=C(c2ccc(C)cc2)S(=O)(=O)N=C1N1CCC(C(=O)NCc2ccc(C)cc2)CC1 -20.1%
Cc1ccc(NC(=O)CSc2nccn2Cc2ccc3c(c2)OCO3)c(C)c1 -14.3%
c1cnc(N2CCN(Cc3ccc4c(c3)OCO4)CC2)nc1 -9.97% and -2.02%
COc1cc(NS(=O)(=O)c2ccc(NC(=O)c3ccc(OC)c(Br)c3)cc2)nc(OC)n1 44.8%
CCc1ccc(S(=O)(=O)n2ccnc2)cc1 11.8%
COCCn1c(=NC(=O)c2ccc3c(c2)OCCO3)sc2cc(NC(C)=O)ccc21 -1.88%
Cc1ccc(-c2nn3c(=O)cc(CN4CCN(C(=O)c5ccc(C(C)(C)C)cc5)CC4)nc3s2)cc1 -0.412%
O=C(Nc1ccc(F)cc1F)N1CCc2c(sc3c2CCCC3)C1c1ccc(F)cc1 (stereo not drawn) 5.67%
O=C(CC1C(=O)N(c2ccccc2)C(=O)N1CCC1=CCCCC1)Nc1ccc(F)cc1 (stereo not drawn) 1.65%
CCCN1CCN(CCNC(=O)Nc2ccc(OC)cc2OC)CC1 -9.46%
CC(C)C[C@H](NC(=O)[C@H](O)[C@H](N)Cc1ccccc1)C(=O)O -5.17%
COCCNC(=O)Cn1nc(N2CCN(c3ccccc3OC)CC2)ccc1=O -0.183%
CCOc1ccc(NC(=O)N2CCN(S(=O)(=O)c3ccc4c(ccn4C)c3)CC2)cc1 4.82%
COc1ccccc1N(CC(=O)NCCSCc1ccccc1)S(=O)(=O)c1ccc(C)cc1 -7.75%
Cc1ccccc1NC(=O)CSc1nc(-c2ccccc2C)nc2cc(=O)[nH]n12 -32.4%
COc1ccc(NC(=O)Cn2c(=O)n(C(C)C)c(=O)c3oc4ccccc4c32)cc1Cl -10.7%
O=C1CN(C(=O)Cc2ccc(F)cc2)C(c2ccccc2)c2cc(Cl)ccc2N1 (stereo not drawn) -26%
CC(=O)N1CCN(c2csc3ccc(F)cc3c2=O)CC1 -19.1%
CCc1ccc(C(=O)c2cn(CC(=O)Nc3ccc(F)cc3)c3ccc(OC)cc3c2=O)cc1 0.177%
Cc1nn(-c2ccccc2)c(OC(=O)C(C)C)c1Sc1ccccc1 -2.37%
CCc1ccccc1N(C)C(=O)Cc1c(C(=O)O)c(C)cn1C 3.35%
Brc1cccc(CNCCSc2nnnn2-c2ccccc2)c1 -13.1%
COc1ccc(-c2cc(C(C)=O)c(C)n2CCC(=O)NCc2ccccc2OC)cc1 -25.8%
Cc1ccc(NC(=O)Cc2ccc(-n3c(C)nc4cccnc43)cc2)cc1C 0.105%
Cc1cc(C)cc(OCC(=O)NCCc2nc3ccccc3[nH]2)c1 -9.63%
Cc1cc(C)c(NC(=O)C(C)n2nc(-c3ccc(C)c(C)c3)ccc2=O)c(C)c1 (stereo not drawn) -1.53%
CCCCOc1ccc(S(=O)(=O)Nc2ccc(-c3ccc(N4CCCCCC4)nn3)cc2)cc1 -2.41%
COc1cccc(CNC(=O)CCc2cn(Cc3ccccc3Cl)c3ccccc23)c1 -14.3%
Cc1ccc(Cl)cc1NC(=O)C(C)n1nnc2sc(-c3ccccc3)cc2c1=O (stereo not drawn) -6.84%
CCOC(=O)c1cc(-c2ccccc2)n(CCCC(=O)Nc2ccc(C(C)C)cc2)c1C -24.4%
COC(=O)c1cccc(-n2c(CCC(=O)O)ccc2-c2ccc(OC)cc2)c1 -24.7%
O=C(COc1ccc2oc3c(c2c1)CCCC3)Nc1ccc(Br)cc1 5.81%
CCOC(=O)c1c(C)oc2ncnc(N3CCN(c4ccccc4OC)CC3)c12 -25.9%
COc1ccc(Cn2c(SCc3ccc(C(=O)NC4CCCC4)cc3)nc3ccncc32)cc1 -39.3%
CCOc1ccc(NC(=O)CSc2nccn2Cc2ccco2)cc1 -14.5%
COc1ccc(-c2nc3ccccc3s2)cc1NC(=O)COc1ccc(C)cc1 -4.64%
COc1ccc(OCC(=O)OCc2cc(=O)n3cc(C)sc3n2)cc1 -11%
CCC1CCCCN1S(=O)(=O)c1ccc(C(=O)Nc2sc3c(c2C(=O)NC)CCC3)cc1 (stereo not drawn) -8.2%
CCOCCCN1C(=O)CN(C2CCCCCC2)C(=O)C1c1ccc(OC(C)C)c(OC)c1 (stereo not drawn) -21.4%
CCc1ccccc1NC(=O)c1ccc2c(O)c(S(=O)(=O)c3ccccc3)c(=O)[nH]c2c1 -25.2%
COc1ccccc1CNC(=O)c1oc2ccc(S(=O)(=O)N3CCCCC3)cc2c1C 4.84%
COc1ccc(NC(=O)c2cc3nc(-c4ccc(C)c(C)c4)cc(C(F)(F)F)n3n2)cc1 -6.64%
Cc1ccc(CSc2ncc(Cl)c(C(=O)NCCc3ccc(S(N)(=O)=O)cc3)n2)cc1 39.7%
CCOC(=O)C1CCN(C(=O)CCS(=O)(=O)c2cc3c(cc2Cl)NC(=O)CO3)CC1 -13.6%
CC(C)(C)NCC(O)COc1cccc2c1CCC(=O)N2 (stereo not drawn) -5.81%
COc1ccc(NC(=O)CSc2nc(-c3ccc(OC)cc3)[nH]c2-c2ccc(OC)cc2)cc1 -18%
Cc1ccc(N(CC(=O)NCc2ccc(Cl)cc2)S(=O)(=O)N(C)C)cc1 13.2%
COc1ccc(-c2cc(OC(=O)c3ccc(Cl)cc3)c3c(C)oc(C)c3c(=O)c2)cc1 -2.43%
Cc1cccc(CN2C(=O)c3ccccc3S(=O)(=O)c3ccc(C(=O)NCCC4=CCCCC4)cc32)c1 -21.4%
COC(=O)c1ccc(Nc2nnc(-c3ccc(C)c(S(=O)(=O)N4CCN(C)CC4)c3)c3ccccc23)cc1 -33.4%
Cc1ccc(C(=O)Nc2cccc(-c3nc4cccnc4s3)c2C)cc1 5.24%
COc1cc(Cl)c(C)cc1NC(=O)c1sc2nc3n(c(=O)c2c1C)CCCCC3 7.24%
COc1ccc(OC)c(NC(=O)CSC2=Nc3ccccc3C3=NC(CC(=O)NCc4ccc5c(c4)OCO5)C(=O)N23)c1 (stereo not drawn) 4.38%
Cc1ccccc1Cn1c(=O)n(Cc2ccc(Cl)cc2)c(=O)c2cccnc21 -7.36%
O=c1cc(N2CCN(c3ccc(F)cc3)CC2)[nH]c(=O)n1-c1ccc(Br)cc1 -4.6%
Cn1c(SCc2ccc(C(F)(F)F)cc2)nc2c([nH]c3ccccc32)c1=O 1.32%
CCOC(=O)c1c(NC(=O)c2nc(SC(C)C)ncc2Cl)sc2c1CCCC2 -1.05%
COc1cc(C(=O)NCC(c2cccnc2)N2CCc3ccccc32)cc(OC)c1OC (stereo not drawn) -28.2%
CN(C)c1ccc(C(CNS(=O)(=O)c2ccccc2)N2CCc3ccccc32)cc1 (stereo not drawn) -28.3%
COc1cc(NC(=O)N2CCC(CN3CCCC3)CC2)cc(OC)c1OC -14.7%
CC(=O)c1c(C)oc2c(Cl)cc(NS(=O)(=O)c3ccc(Cl)cc3)cc12 16.4%
CCN(CC)C(=O)Cn1c(=O)n(Cc2ccc(C(=O)NCc3ccccc3Cl)cc2)c(=O)c2ccccc21 -2.76%
CCOC(=O)c1c(-c2ccc(Br)cc2)csc1NC(=O)c1ccccc1F -6.42%
COc1cc(C2C(=O)N(C3CCCCC3)CC(=O)N2Cc2ccc(C)cc2)ccc1OC(C)C (stereo not drawn) -23.9%
O=C(CSc1nccn1-c1ccc(F)cc1)Nc1ccc(OC(F)(F)F)cc1 3.27%
N#C/C(=C\c1ccc(-c2cc(Cl)ccc2Cl)o1)C(=O)Nc1cccc2ncccc12 6.4%
O=C1[C@@H]2CSC(c3ccc(C(F)(F)F)cc3)N2C(=O)N1c1ccccc1 (stereo partly drawn) -8.16%
CCCNc1c(NC(=O)c2ccc(OCCC)cc2)c(=O)oc2ccccc12 -2.64%
O=C1CN(C(=O)c2ccccc2C(F)(F)F)C(c2ccccc2)c2cc(F)ccc2N1 (stereo not drawn) -17.1%
COc1cc2c(cc1OC)C(COc1ccc3c(C)cc(=O)oc3c1)N(C(=O)c1ccc(Cl)cc1)CC2 (stereo not drawn) -8.27%
Cc1ccc2c(C)c(C(=O)N(Cc3ccc(Cl)cc3)C3CCS(=O)(=O)C3)oc2c1 (stereo not drawn) -38.5%
COc1cc(OC)cc(C(=O)Nc2ccccc2-c2nc3ccccc3s2)c1 0.335%
CN(C)c1ccc(C(CNC(=O)c2ccc(C(C)(C)C)cc2)N2CCOCC2)cc1 (stereo not drawn) -27%
COc1ccc2[nH]c(C)c(CCNS(=O)(=O)c3cc(F)ccc3OC)c2c1 9.75%
CCCOc1cccc(C(=O)Nc2cccc(NC(=O)c3ccc(C(C)(C)C)cc3)c2)c1 -5.75%
COc1ccc(CCNC(=O)C2(c3cccs3)CCOCC2)cc1OC 0.221%
Cc1coc2cc3oc(=O)c(CCC(=O)NCc4ccc(Cl)cc4)c(C)c3cc12 20.1%
CCOc1ccc(OC(=O)c2cn(-c3ccc(C)cc3)c(=O)c3ccccc23)cc1 -10.9%

Reference: PubChem BioAssay AID1346428 (National Center for Advancing Translational Sciences (NCATS), 2018)
